The text below walks through data of the antibiotic and cytotoxicity screens of Wong et al. (2023).

One test deals with HSkMC. Put plainly: cytotoxicity call (relative viability < 0.9). To be noted: 10 µM.
The next test concerns HepG2. Put plainly: cytotoxicity call (relative viability < 0.9). Conditions: 10 µM.
The test system of the next test is S. aureus RN4220. Kind of test: growth inhibition call (relative growth <= 0.2). To be noted: 50 µM.

The list shows a part of the results.

In the case of `N[C@@]1(C(=O)O)CS(=O)(=O)[C@H]2[C@H](C(=O)O)[C@H]21`, the cytotoxicity call with HSkMC and in the test with HepG2 was “inactive” in each case. Besides, the growth inhibition call in the test with S. aureus RN4220 is “inactive”.
For the compound `NC[C@H](c1ccncc1)c1ccc[nH]1`, the cytotoxicity call with HSkMC and in the test with HepG2 was “inactive” each time. For the same compound, in the test on S. aureus RN4220, the growth inhibition call is “inactive”.
Regarding `C[C@H]1CCCCO[C@H](CN(C)Cc2ccc(C(F)(F)F)cc2)[C@@H](C)CN([C@@H](C)CO)C(=O)c2cc(NC(=O)Nc3ccc(F)cc3)ccc2O1`, the cytotoxicity call with HSkMC was “inactive”. Moreover, the cytotoxicity call in the test on HepG2 was “active”. The growth inhibition call in the test on S. aureus RN4220 is “inactive”.
Regarding `C[C@@H]1CN([C@H](C)CO)C(=O)c2cc(N(C)C)ccc2O[C@@H](C)CCCCO[C@H]1CN(C)C(=O)Nc1cccc2ccccc12`, the cytotoxicity call in the test with HSkMC and in the test on HepG2 was “inactive” in each case. In the test on S. aureus RN4220, the growth inhibition call is “inactive”.
For `COc1cccc(NC(=O)N2C[C@H](O)COC[C@H]3O[C@H](CC(=O)NC4Cc5ccccc5C4)CC[C@@H]32)c1`, the cytotoxicity call in the test on HSkMC and in the test with HepG2 was “inactive” throughout. For the same compound, the growth inhibition call in the test on S. aureus RN4220 was “inactive”.
As to `Cc1noc(C)c1NC(=O)N(C)C[C@H]1OCCCC[C@@H](C)Oc2ccc(NS(=O)(=O)c3ccc(F)cc3)cc2C(=O)N([C@@H](C)CO)C[C@H]1C`, the cytotoxicity call in the test with HSkMC and in the test on HepG2 was “inactive” throughout. In the test with S. aureus RN4220, the growth inhibition call was “inactive”.
As to `CN(C)CCCNC(=O)C[C@H]1C=C[C@@H](NS(=O)(=O)c2ccccc2)[C@H](CO)O1`, the cytotoxicity call in the test on HSkMC and with HepG2 was “inactive” each time. Besides, the growth inhibition call in the test with S. aureus RN4220 is “inactive”.
For the compound `Cc1noc(C)c1S(=O)(=O)Nc1cccc2c1O[C@H](CN(C)S(C)(=O)=O)[C@H](C)CN([C@@H](C)CO)C2=O`, the cytotoxicity call in the test on HSkMC (human skeletal muscle cells) and in the test on HepG2 was “inactive” in each case. Besides, the growth inhibition call in the test with S. aureus RN4220 was “inactive”.
Take `Cc1noc(C)c1S(=O)(=O)Nc1ccc2c(c1)C(=O)N([C@@H](C)CO)C[C@@H](C)[C@@H](CN(C)S(C)(=O)=O)OCCCC[C@@H](C)O2`: the cytotoxicity call in the test with HSkMC and in the test on HepG2 was “inactive” in each case. Moreover, the growth inhibition call in the test with S. aureus RN4220 was “inactive”.
